Some of the results follow. Rule as the data show it: active = 3.2 or more and inactive = the rest. The signal is at background level for most entries.
What was measured:
Experiment in all cases: enrichment score (SH2-bound / input frequency) (ratio); bacterial display of known human phosphotyrosine sites (pTyr-Var adds point mutants) read by sequencing; higher = stronger binding; tyrosines were phosphorylated by kinases first
Settings in all cases: peptide library: pTyr-Var
[1] = target: SHP2 C-SH2 domain E139D
[2] = target: SHP2 C-SH2 domain wild-type
[3] = target: SHP2 N-SH2 domain L43F
[4] = target: SHP2 N-SH2 domain T42A
[5] = target: SHP2 N-SH2 domain T52S
[6] = target: SHP2 N-SH2 domain wild-type
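Also: displayed peptides selected on beads carrying the immobilized SH2 domain, with library peptides lacking any tyrosine serving as negative controls.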

Row | Binder | enrichment score [1] | enrichment score [2] | enrichment score [3] | enrichment score [4] | enrichment score [5] | enrichment score [6]
1 | RRIHNYRGHLW [VHL_Y112_S111N] | inactive: 0.21 | inactive: 0.206 | inactive: 0.245 | inactive: 0.35 | inactive: 0.147 | inactive: 0.283
2 | RRIHSHRGHLW [VHL_Y112_Y112H] | inactive: 0.3 | inactive: 0.222 | inactive: 0.325 | inactive: 0.437 | inactive: 0.262 | inactive: 0.198
3 | KLKRSYSSRDI [USP8_Y717_P720R] | inactive: 0.485 | inactive: 0.395 | inactive: 0.424 | inactive: 0.474 | inactive: 0.493 | inactive: 0.52
4 | RRIHSYRGHVW [VHL_Y112_L116V] | inactive: 0.297 | inactive: 0.367 | inactive: 0.175 | inactive: 0.276 | inactive: 0.164 | inactive: 0.332
5 | NYRPGYNNFYN [USH2A_Y467] | inactive: 0.886 | inactive: 0.932 | inactive: 0.697 | inactive: 0.743 | inactive: 0.802 | inactive: 0.766
6 | RRIFSYRGHLW [VHL_Y112_H110Y_YF] | inactive: 0.319 | inactive: 0.229 | inactive: 0.386 | inactive: 0.272 | inactive: 0.219 | inactive: 0.236
7 | SHNELYYEEAE [VANGL1_Y344] | inactive: 0.462 | inactive: 0.578 | inactive: 0.457 | inactive: 0.404 | inactive: 0.391 | inactive: 0.617
8 | RRIHSYRGYLW [VHL_Y112_H115Y] | inactive: 0.284 | inactive: 0.205 | inactive: 0.214 | inactive: 0.223 | inactive: 0.211 | inactive: 0.197
9 | DTFDPYLDIAL [USP36_Y268_V271I_YF] | inactive: 0.742 | inactive: 0.664 | inactive: 0.637 | inactive: 0.633 | inactive: 0.752 | inactive: 0.736
10 | VSSSDYFSFVL [USP24_Y2138_Y2134S] | inactive: 0.799 | inactive: 0.88 | inactive: 0.789 | inactive: 0.832 | inactive: 0.915 | inactive: 0.754
11 | RRIHSYRGFLW [VHL_Y112_H115Y_YF] | inactive: 0.29 | inactive: 0.303 | inactive: 0.3 | inactive: 0.256 | inactive: 0.323 | inactive: 0.199
12 | DTFDPYLDVAL [USP36_Y268_YF] | inactive: 0.915 | inactive: 0.841 | inactive: 0.832 | inactive: 0.695 | inactive: 0.841 | inactive: 1.01
13 | PRIHSYRGHLW [VHL_Y112_R107P] | inactive: 2.99 | inactive: 2.72 | inactive: 2.8 | inactive: 2.42 | inactive: 2.25 | inactive: 2.82
14 | HNELFYEEAEH [VANGL1_Y345_YF] | inactive: 0.771 | inactive: 0.627 | inactive: 0.946 | inactive: 0.731 | inactive: 0.614 | inactive: 0.534
15 | SHNELYYEAAE [VANGL1_Y344_E347A] | inactive: 0.585 | inactive: 0.641 | inactive: 0.607 | inactive: 0.647 | inactive: 0.825 | inactive: 0.691
16 | DGTIVYTGLET [USH2A_Y4487] | inactive: 0.714 | inactive: 1.88 | inactive: 1.97 | active: 5.67 | inactive: 2.33 | inactive: 0.901
17 | NDDDVYLSLEE [VAV2_Y142_R143L] | inactive: 0.447 | inactive: 0.568 | inactive: 0.51 | inactive: 0.275 | inactive: 0.507 | inactive: 0.479
18 | DTYDPYLDIAL [USP36_Y268_V271I] | inactive: 0.467 | inactive: 0.677 | inactive: 0.76 | inactive: 0.691 | inactive: 0.488 | inactive: 0.747
19 | RRIHSYRGHLW [VHL_Y112] | inactive: 0.294 | inactive: 0.336 | inactive: 0.288 | inactive: 0.325 | inactive: 0.179 | inactive: 0.212

Row | Binder | enrichment score [1] | enrichment score [2] | enrichment score [3] | enrichment score [4] | enrichment score [5] | enrichment score [6]
20 | ISSLDYISKTK [VAV3_Y294] | inactive: 0.618 | inactive: 0.469 | inactive: 0.65 | inactive: 0.74 | inactive: 0.658 | inactive: 0.725
21 | NDEDIYKGLPD [VAV3_Y141] | inactive: 0.429 | inactive: 0.641 | inactive: 0.497 | inactive: 0.417 | inactive: 0.54 | inactive: 0.69
22 | DTYDPYLDVAL [USP36_Y268] | inactive: 0.616 | inactive: 0.647 | inactive: 0.711 | inactive: 0.471 | inactive: 0.577 | inactive: 0.734
23 | RRIHRYRGHLW [VHL_Y112_S111R] | inactive: 0.236 | inactive: 0.221 | inactive: 0.25 | inactive: 0.248 | inactive: 0.101 | inactive: 0.185
24 | RRIHCYRGHLW [VHL_Y112_S111C] | inactive: 0.499 | inactive: 0.248 | inactive: 0.372 | inactive: 0.496 | inactive: 0.333 | inactive: 0.523
25 | WFPYTYVEEDE [VAV3_Y842_S840Y] | inactive: 1.25 | inactive: 1.33 | inactive: 1.82 | inactive: 1.43 | inactive: 2.38 | inactive: 1.59
26 | NSRYTCKLEVK [USH2A_Y3747_Y3747C] | inactive: 0.861 | inactive: 0.866 | inactive: 0.812 | inactive: 0.791 | inactive: 0.638 | inactive: 1
27 | NFRPGYNNFFN [USH2A_Y467_YF] | inactive: 1.22 | inactive: 0.814 | inactive: 1.16 | inactive: 0.982 | inactive: 0.961 | inactive: 1
28 | NSRFTYKLEVK [USH2A_Y3747_YF] | inactive: 0.482 | inactive: 0.694 | inactive: 0.487 | inactive: 0.483 | inactive: 0.526 | inactive: 0.573
29 | RRIHSYRGHLC [VHL_Y112_W117C] | inactive: 0.237 | inactive: 0.267 | inactive: 0.241 | inactive: 0.297 | inactive: 0.357 | inactive: 0.274
30 | TPGPNYRPGFN [USH2A_Y463_YF] | inactive: 0.74 | inactive: 0.579 | inactive: 0.817 | inactive: 0.78 | inactive: 0.587 | inactive: 0.849
31 | KRLKDYLTVLQ [USP25_Y425] | inactive: 0.905 | inactive: 0.841 | inactive: 0.806 | inactive: 0.863 | inactive: 0.98 | inactive: 1.11
32 | KNRDVYSSDYF [USP24_Y2134] | inactive: 0.848 | inactive: 0.762 | inactive: 0.69 | inactive: 0.687 | inactive: 0.715 | inactive: 0.823
33 | TTSQPYRCLCS [USH2A_Y534] | inactive: 1.15 | inactive: 0.959 | inactive: 0.667 | inactive: 0.859 | inactive: 1.04 | inactive: 1.14
34 | HNELYYEAAEH [VANGL1_Y345_E347A] | inactive: 0.596 | inactive: 0.685 | inactive: 0.562 | inactive: 0.403 | inactive: 0.57 | inactive: 0.625
35 | KRLKDYLMVLQ [USP25_Y425_T427M] | inactive: 2.2 | inactive: 2.29 | inactive: 2.41 | inactive: 2.24 | inactive: 2.72 | inactive: 1.93
36 | RRIHSYRGQLW [VHL_Y112_H115Q] | inactive: 0.232 | inactive: 0.277 | inactive: 0.381 | inactive: 0.168 | inactive: 0.185 | inactive: 0.216
37 | KNRDVYSSDFF [USP24_Y2134_YF] | inactive: 0.837 | inactive: 0.855 | inactive: 0.69 | inactive: 0.67 | inactive: 0.695 | inactive: 0.835
